Measured values: PubChem BioAssay AID1468 (National Center for Advancing Translational Sciences (NCATS), 2008)
Among all 280,000 compounds or so, about 1,100 (0.39%) were called active. The shares of active, inactive and inconclusive entries below differ from those in the screen. Calls follow the shape of the dose curve; as a rule, active = well fitted inhibition curve with a large enough effect; inconclusive = small, poorly fitted or top-dose-only effect, or effect the other way; inactive = flat fitted curve, though single readings scatter. Potencies of inconclusive entries are doubtful fits and often do not repeat.

What follows are compounds tested against Microtubule-associated protein tau (Homo sapiens) (UniProt P10636) (assay: qHTS for Inhibitors of Tau Fibril Formation, Fluorescence Polarization). Details: K18 P301L tau heparin fibrillization, Alexa594 FP, 6 h; series mostly up to 57.7 µM.
Outline: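 Recombinant K18 P301L […], labeled with Alexa 594 at 0.24 uM over 15 uM unlabeled; heparin inducer 20 uM final; 37 C, 6 hr; FP endpoint.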
Also: nearly all actives have a fitted effect of over 55% in size.
Potency is read from the fitted curve at half-maximal effect; tags tell the direction and shape of the fitted curve.

Chain of UniProt P10636 (P10636 whole entry, looked up): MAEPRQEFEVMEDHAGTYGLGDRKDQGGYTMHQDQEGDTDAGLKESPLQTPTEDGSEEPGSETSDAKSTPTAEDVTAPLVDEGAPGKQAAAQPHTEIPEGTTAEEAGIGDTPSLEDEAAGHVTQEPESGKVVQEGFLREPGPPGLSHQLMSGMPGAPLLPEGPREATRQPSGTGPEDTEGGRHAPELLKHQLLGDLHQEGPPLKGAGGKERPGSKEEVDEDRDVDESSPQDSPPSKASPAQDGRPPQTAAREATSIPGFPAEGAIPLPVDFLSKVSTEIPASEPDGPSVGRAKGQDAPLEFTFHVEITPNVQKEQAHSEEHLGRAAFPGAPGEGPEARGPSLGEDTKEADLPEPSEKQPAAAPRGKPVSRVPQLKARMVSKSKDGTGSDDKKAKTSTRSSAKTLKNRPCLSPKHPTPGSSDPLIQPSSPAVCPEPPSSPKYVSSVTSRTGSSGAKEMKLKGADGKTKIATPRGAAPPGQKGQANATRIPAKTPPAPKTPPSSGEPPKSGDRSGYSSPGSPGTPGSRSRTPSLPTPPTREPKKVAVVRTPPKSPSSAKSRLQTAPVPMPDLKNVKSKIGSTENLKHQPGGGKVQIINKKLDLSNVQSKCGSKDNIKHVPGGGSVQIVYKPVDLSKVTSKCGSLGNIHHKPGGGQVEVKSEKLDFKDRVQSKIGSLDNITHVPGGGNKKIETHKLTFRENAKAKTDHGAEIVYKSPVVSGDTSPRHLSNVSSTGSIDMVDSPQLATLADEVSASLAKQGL

Potency, inactive:
CC(C)(C)n1nnnc1C(c1cccs1)N(Cc1ccccc1)Cc1ccco1 (configuration not stated)
COC(=O)c1ccc(/C=N/Nc2nc(-c3ccc(C)cc3)cs2)cc1
Cc1ccc(OCC(=O)Nc2sc3c(c2C(N)=O)CCCC3)c(C(C)(C)C)c1
CCOc1ccccc1C(=O)N(Cc1ccco1)Cc1ccccc1F
COc1ccc(NC(=O)c2ccc(COCC(F)(F)C(F)F)cc2)cc1OC
CCCCC1=CC2=CC(=O)C(C)(OC(=O)CC)C(=O)C2=CN1CCOC (configuration not stated)
O=C(Nc1cccc(-c2cn3c(n2)SCC3)c1)c1ccc(Br)o1
CC(C)CCSc1nnc(N)s1
CCOC(=O)c1c(C)n(C)c2ccc(OCC(O)CN3CCN(C)CC3)cc12 (configuration not stated)
COc1ccccc1CN1C(=O)[C@@H]2C(CCC(N)=O)NC3(C(=O)Nc4c3ccc(Cl)c4C)[C@@H]2C1=O (some centres not stated)
COc1ccc(CSc2nc(C)cc(=O)[nH]2)cc1Br
COc1ccc(N2CCN(C(CNS(=O)(=O)c3cccs3)c3cccnc3)CC2)cc1 (configuration not stated)
CS(=O)(=O)N1CCN(C(=O)c2ccc(Cl)s2)CC1
CC[C@H](C)[C@H](NC(=O)OCC1c2ccccc2-c2ccccc21)C(=O)O
COc1ccccc1N1C(=O)CC(Sc2n[nH]c(-c3cccc(C)c3)n2)C1=O (configuration not stated)

Potency, inconclusive:
O=C(Cn1c(=O)n(CCCS(=O)(=O)C2CCCCC2)c(=O)c2ccccc21)Nc1ccc(F)c(Cl)c1 17.8 µM [inhibitor, partial curve]
COc1ccc(-c2oc(/N=C/N3CCCC3)c(C#N)c2-c2ccc(OC)cc2)cc1 1.26 µM [activator, full curve, poor fit]
CCc1nnc(NC(=O)CN2C(=O)/C(=C/c3ccc(OC)c(OC)c3)SC2=S)s1 2.51 µM [inhibitor, partial curve, poor fit]
COC(=O)c1sc2ccccc2c1NC(=O)c1ccc(S(=O)(=O)N2CCCCC2C)cc1 (configuration not stated) 22.4 µM [inhibitor, single point]
Cc1ccc(C(=O)Nc2ccc(Br)cc2)cc1S(=O)(=O)NCc1ccccc1 10 µM [inhibitor, partial curve]
C=CCn1c(O)c(N=NC(=S)Nc2ccccc2F)c2cc(S(=O)(=O)N3CCOCC3)ccc21 10 µM [activator, partial curve]
CC(C)(C)CC(C)(C)NC(=S)Nc1ccc(S(=O)(=O)N2CCOCC2)cc1 22.4 µM [inhibitor, partial curve]
CCOC(=O)c1c(C)oc2nc(C)nc(N3CCN(c4ccc(OC)cc4)CC3)c12 0.0794 µM [activator, partial curve]
N#CC(C#N)=C1c2cc(S(=O)(=O)NCCO)ccc2-c2ccc(S(=O)(=O)NCCO)cc21 25.1 µM [inhibitor, partial curve]
CC(C(=O)Nc1ccc(C#N)cc1)N(C)CC(=O)Nc1cccc(F)c1 (configuration not stated) 7.94 µM [inhibitor, single point]
COc1ccccc1Cn1c(SCC(=O)C(C)(C)C)nc2ccccc2c1=O 39.8 µM [inhibitor, single point]
O=C(Nc1ccccc1)Nc1nc(-c2ccccc2)cs1 17.8 µM [inhibitor, partial curve, poor fit]
Cc1nn(-c2ccccc2)c2nc(N)c(C#N)c(-c3ccc(F)cc3)c12 17.8 µM [inhibitor, partial curve]
CC(C)(C)OC(=O)[C@H](Cc1ccccc1)NC(=O)c1nc[nH]c1C(=O)NCc1ccccc1 1 µM [inhibitor, single point]
CCCC(=O)C1=C(c2cccc(OC)c2)N(C(=O)CCC)n2c(C)nnc2S1 44.7 µM [inhibitor, single point]
O=C(CC(Nc1ccccc1Cl)C(=O)O)c1ccccc1 (configuration not stated) 28.2 µM [inhibitor, single point]
Cc1ccc(-n2nc3ccc(NC(=O)Cc4ccc(Cl)cc4)cc3n2)cc1 22.4 µM [inhibitor, partial curve]
Cc1c(O)ccc(/C=N/Nc2nc(-c3cccnc3)nc3ccccc23)c1O 1.78 µM [activator, full curve]
CCN1CCN(Cc2ccc(NC(=O)c3cc(NC(=O)c4ccc5n[nH]nc5c4)cc(OC)c3)cc2C(F)(F)F)CC1 20 µM [inhibitor, partial curve]
Nc1nonc1-n1nnc(C(=O)N/N=C/c2ccc(OCc3ccccc3)cc2)c1COc1ccc(F)cc1 7.94 µM [inhibitor, partial curve]
COc1ccc(Cn2c(=O)c3oc4ccccc4c3n(Cc3cccc(F)c3)c2=O)cc1 44.7 µM [inhibitor, single point]
O=C(N/N=C1\C/C(=N\NC(=O)c2ccncc2)c2ccccc21)c1ccncc1 8.91 µM [inhibitor, partial curve]
Cn1c(=O)c2c(ncn2CC(=O)OCC(=O)NC(c2ccccc2)c2ccccc2)n(C)c1=O 8.91 µM [inhibitor, single point]
Cc1ccc(NC(=O)C2CCCN(S(=O)(=O)c3c(C)n[nH]c3C)C2)cc1Cl (configuration not stated) 44.7 µM [inhibitor, single point]
Cc1cccc(-n2nnc(C(=O)Nc3ccc(F)cc3)c2N)c1 17.8 µM [inhibitor, single point]
CC(=O)c1cccc(NC(=O)CCS(=O)(=O)c2cccc3nsnc23)c1 31.6 µM [inhibitor, single point]
Cc1c(C(=O)Nc2ccc(F)c(F)c2)oc2ccc(S(=O)(=O)N3CCC4(CC3)OCCO4)cc12 31.6 µM [inhibitor, partial curve]
